Measured values from the RNAGym collection of RNA variant scans (doi:10.7554/elife.90254).
The source gives no read counts; variants with many changes may rest on few reads.

B1: OR4K15 (parent)
chain: GUUAACGGUCAUAGGCCAUGGAAACUAGGAGCACCAUUUCGCUGCCAGUGAAGAAAUGAACAAAGAAAAUCUGGGCCAGGCAGGCAUCAAAAGAAAUAGUCUUGCGCUCAACCAGAAAGUCUGUAAUCAUUUUAAGGGUA

Variants of: B1
Assay: self-cleavage, relative activity (ratio to wild type); higher = more cleavage; in vitro, sequencing; the parent is a self-cleaving ribozyme

Row | Variant | self-cleavage
1 | A51G A56G A94G A114U A135G | 0.03
2 | A23U A56G U127C | 1.31
3 | C42A A59G C71A A95G | 0.9
4 | G31A U38C A64U A78U | 0.51
5 | C25A U37C A52G U57C U133A | 1.95
6 | A36G A66G U103C | 0.85
7 | A47G U87C A111G U122C | 0.01
8 | A24G A27G U102A | 1
9 | U39C A96G A110U U130C | 0.28
10 | A4G A63G A90G A111G | 0.11
11 | U37C A78G A95G A118U | 0.03
12 | G8A A30G A47G | 1.58
13 | U9C A54G U130C | 2
14 | A24G A67C C77U U102C | 1.98
15 | U26C U72C A91G | 0.11
16 | A52G U100A U132C | 0.51
17 | A78G A96G U100C U131C | 0.34
18 | A24G U57C U102A A114G A118U | 0
19 | U39C A51G A96G U100C | 2.32
20 | U19A U43C A68G C128U | 0.8
21 | U9C A24G A67G | 1.1
22 | A78G U108A A126U | 0.02
23 | U49C A68U U87C U122G C128U U133C | 2.26
24 | U87C A116G C128A U132A | 0.23

Row | Variant | self-cleavage
25 | G21U A86G A90G | 0.84
26 | A33G U102C U130C | 1.22
27 | A63G A91G U102C | 1.92
28 | U37C U70A G75C | 0.2
29 | A89G A116G A118G | 0.13
30 | A51G U57C U72A | 0.16
31 | U49C A59G A62C A129U | 0.46
32 | A63U U72C A90G A95G A126C | 0.24
33 | U38C A60G A90G U130C | 0.22
34 | G7A A11U A23G A89G U108C A118G | 0.01
35 | U12A A68G A135G | 1.18
36 | A5G A27G U57C A68G A69G | 0.53
37 | U19A C32A U70C U100A U102C | 1.08
38 | A82G A86G A96U A116U | 0.05
39 | G14A A63G A129G | 0.89
40 | U49C U57A U87C A114G | 0.03
41 | U43C A95G U102A | 0.54
42 | U9A A60U A96G A116G | 1.08
43 | U49C U108C U132C | 0.01
44 | A11U A22G A33G A62G | 0.98
45 | A18C G106U U130C | 0.01
46 | A24U U43C U70C U108C | 0.01
47 | A55U A68G A95G | 1.78
48 | A27G A54G A60G A86U A140U | 1.09

Row | Variant | self-cleavage
49 | A23G U26C A27U A47C A89U A114G A125G A129G | 0.02
50 | A22G A30G U37G U49C U100C U102A | 1.33
51 | A33G U57C A64G | 0.27
52 | A33G U37A A52G | 1.87
53 | G8A A82G U87C | 0.56
54 | A59C G75A A90G U103C U127C | 0.02
55 | G73U A91G A125G | 0.01
56 | G20A A47G A55G A86U A90G A95G U108C | 0.01
57 | A18G A54G A114U A126G | 0.06
58 | U43C A82G A111G | 0.03
59 | A5G A24G A90G U124C | 1.18
60 | G14A A62G A117G | 1.1
61 | A51U A63G A95G U108C | 0
62 | A51G A82G U120A | 0.66
63 | A27G A47U A110G | 0.05
64 | U103C U108C U139A | 0
65 | A78U G84C U124C | 0.06
66 | A55G A67G A126U | 0.85
67 | U19A G74U A117G | 0.17
68 | C77U U108C U130C | 0.01
69 | A118G U122C U133C | 1.04
70 | U19C A30U A95G | 1.49
71 | A5U U102C U127C | 1.58
72 | U49A A90U A126G | 1.47

Row | Variant | self-cleavage
73 | U26C A59G U103C A110G U127A | 0.05
74 | A24G U57C A60U A62G | 1.2
75 | A47G A92G A98G U132C | 0.45
76 | A63G A68G U87C U132A | 1.1
77 | G7A A69G U72C A110G | 0
78 | A33G A62G A96G | 0.91
79 | A59G A82G G106A A116U | 0
80 | A5G A33G A110G | 0.15
81 | U12G G15U A51G U57C A86G A116G A118G A126U | 0.45
82 | A67G A95G A96G U120C U132G | 0.42
83 | U57C U108C U122A | 0
84 | U38C A125G A140G | 0.97
85 | A11G A23G U108C | 0
86 | G8A U43A A56G U130C | 2.47
87 | A22C A64G A95G | 2.04
88 | A23G A86U A91G A94G A96G | 1.54
89 | A86G A91U A94G | 1.38
90 | A11G C32U U43C A116G | 0.8
91 | U19C A52G A63U G79A A95U | 0.18
92 | U2C A11G C42U G79A C101A | 0.07
93 | G15A U120A U122A | 1.02
94 | U57A G65A A92G | 1.04
95 | A66G G74A A89C | 0.13
96 | U38C U49G A62G G74U A94G A129U | 0.1

Row | Variant | self-cleavage
97 | A22G A86G A89C | 0.71
98 | A24U U102C U130C | 1.85
99 | G14A G53A A63U A116G | 0.32
100 | A86G A92G U108G | 0.01
101 | A62G A92G U108C | 0
102 | U12A A68G U97C A117G | 1.04
103 | U9A A60G A114G | 0.22
104 | U12A G80A U120C | 0.26
105 | U9C A60G G106A | 0.02
106 | A78G A89G A90U A96G U102C A118U U131C | 0.12
107 | U12C A27G U39C U108C | 0.04
108 | U37C G53U U132C | 1.15
109 | A22G A60G U72C A94G | 0.13
110 | U9C A66G A114U | 0.04
111 | C6A A94G A116U | 0.02
112 | A33U A55G U103C U131C | 0.86
113 | U39C A68G A95C U133C | 1.16
114 | U87C A116U A140G | 0.18
115 | A11G U39C A91G A96G | 1.36
116 | U3A A47G U49C A114U | 0.04
117 | A23G A52G A54G A69G | 1.01
118 | A18G A68U G75A | 0.13
119 | G29A A62G A69G C113U A117G | 0
120 | A64G A68U U132C A134G | 1.37

Row | Variant | self-cleavage
121 | U49C U57C A62G A68G | 1.11
122 | A24G A47U U102C A135U | 1.2
123 | A67G A111G U120G | 0.01
124 | U19A A78G A125G | 0.04
125 | U2G A27U G73A A118G U127C | 0
126 | U19C U39A U49C A52G A64G A129G | 0.98
127 | A27G A68G C113U U122A | 0.01
128 | A5G A22G A54G A89U U102A | 0.83
129 | A23U A27G A56G U131C | 1.03
130 | A18G U57C A64G U122C U127A | 1.29
131 | A63U A96G U108C A117G | 0
132 | U38C A56G A117G | 0.7
133 | A24G U39C A55U U131C | 0.67
134 | A23G A60G A68G U72C A78C A82G A92G U120C U132A | 0.06
135 | C34U U57C A89U A111G U122C G123A | 0
136 | A51U A90G A110G | 0.14
137 | A27U A69G A90G U103C A117G U127C | 0.02
138 | A23G C42U A67G | 0.82
139 | A68G A92G A98U U124C | 2.03
140 | A5G A18G U38C C46A U122C | 0.5
141 | G48A A68G U70C | 0.94
142 | U87C U97C A140G | 0
143 | U43A A91G A92G | 0.8
144 | A22U A30G A60U A125G A140U | 0.56

Row | Variant | self-cleavage
145 | A23G A92G A111G A126G | 0
146 | U37C U108C A125G | 0.01
147 | A24G A68G A89G | 0.91
148 | U37C A54G U132G | 0.29
149 | U19C A27U U38C U43C A60G A64G A96G | 0.42
150 | A92G U108A G136A | 0
151 | U49A A51G A66U | 0.48
152 | A126G U127C U132A | 1.01
153 | A23U A60G A82U A92G A95G U103G U124C A135U | 0.03
154 | A18U C46U A126U | 0.95
155 | U9A U57C A118G | 0.59
156 | U2C U87C A92G | 0.78
157 | U19A A51U U103C | 1.25
158 | U97C U103C A129G | 0.59
159 | A4G A60G G73A A78U | 0.26
160 | A23G A56G A90G A116G | 0.25
161 | A27U A69G U108C U122C | 0
162 | U12C A52G A56G C121U | 1.22
163 | A59G A82G U108C | 0.01
164 | U49C G73A U103C A114G | 0.01
165 | U43C A54G A94G U132A | 1.51
166 | A51G A55U A62U U139C | 1.63
167 | A66U A67G A91G | 0.9
